This note sets out measurements from PubChem BioAssay AID1645882 (National Center for Advancing Translational Sciences (NCATS), 2021).

The campaign covered roughly 16,000 compounds. About 120 (0.75%) were called active. Not shown: some 4% with an inconclusive outcome. The call rests on the fitted dose curve; in most records, active means well fitted inhibition curve with a large enough effect; inconclusive means small, poorly fitted or top-dose-only effect; inactive means no such curve, though single readings can be large or run the other way. Some of the results follow.
Potency means the concentration at half of the fitted maximal effect.

UniProt O95398, sequence (O95398 whole entry, looked up): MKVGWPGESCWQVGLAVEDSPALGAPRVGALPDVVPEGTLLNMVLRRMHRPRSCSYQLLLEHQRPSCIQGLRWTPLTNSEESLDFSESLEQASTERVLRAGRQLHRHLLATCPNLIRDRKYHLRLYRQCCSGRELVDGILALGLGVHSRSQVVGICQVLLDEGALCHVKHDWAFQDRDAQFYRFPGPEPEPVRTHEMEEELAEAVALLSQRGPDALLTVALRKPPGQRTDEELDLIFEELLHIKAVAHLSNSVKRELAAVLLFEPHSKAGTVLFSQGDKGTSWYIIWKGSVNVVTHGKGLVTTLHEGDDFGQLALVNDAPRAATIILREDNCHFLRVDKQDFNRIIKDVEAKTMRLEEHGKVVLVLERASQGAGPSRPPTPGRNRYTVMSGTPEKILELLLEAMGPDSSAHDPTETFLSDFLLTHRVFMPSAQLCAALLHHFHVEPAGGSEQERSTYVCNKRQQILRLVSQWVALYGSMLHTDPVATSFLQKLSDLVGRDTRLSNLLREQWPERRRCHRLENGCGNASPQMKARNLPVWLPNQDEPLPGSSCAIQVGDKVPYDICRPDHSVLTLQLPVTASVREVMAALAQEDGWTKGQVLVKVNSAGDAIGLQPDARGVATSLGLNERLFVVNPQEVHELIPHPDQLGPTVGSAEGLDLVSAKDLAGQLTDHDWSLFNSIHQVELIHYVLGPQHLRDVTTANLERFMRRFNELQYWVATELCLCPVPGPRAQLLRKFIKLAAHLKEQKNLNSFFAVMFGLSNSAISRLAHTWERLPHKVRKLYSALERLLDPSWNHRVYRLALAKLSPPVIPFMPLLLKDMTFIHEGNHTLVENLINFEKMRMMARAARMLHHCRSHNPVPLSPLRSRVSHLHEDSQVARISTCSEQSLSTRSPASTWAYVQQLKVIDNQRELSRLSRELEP

The test deals with Rap guanine nucleotide exchange factor 3 (Homo sapiens) (UniProt O95398). In words: Validation qHTS for antagonist of cAMP-regulated guanine nucleotide exchange factor 3 (EPAC1). Further: nearly all actives have a fitted effect of over 75% in size.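 On activity change, negative = inhibition: plate controls were DMSO for no effect and ATA control for full effect.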 Conditions: EPAC1 Rap1B-BODIPY-GDP exchange, fluorescence; series mostly up to 150 µM; activity change, negative = inhibition: at the top concentration. The gist of the method:
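Nucleotide exchange followed as fluorescence loss when BODIPY-GDP leaves Rap1B (480 nm excitation, 540 nm emission), read at 5 min intervals over 30 min. Reaction: 100 nM EPAC1, 250 nM RAP1B-BODIPY-GDP, 50 uM GDP; ATA and DMSO define normalization.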
Turning to `Cc1cnc(CNc2nc(-c3ccc4c(c3)OCO4)nc3ccccc23)cn1`, the “activity change, negative = inhibition” value is inactive: -32.1%.
`CCOC(=O)C1=C[C@@]2(CC)CCCN3CCc4c(n1c1ccccc41)[C@H]32`: the “activity change, negative = inhibition” value is inactive: -19.3%.
The same measure, in the same setting: with `NCCC(=O)c1ccccc1N` the figure was inactive: 16.6%; with `CC(C)(C)NCC(O)c1ccc(O)c(CO)n1` (stereo not drawn), inactive: 21.4%; with `CN(C)Cc1ccccc1`, inactive: 30.2%.
For the molecule `O=C(CCCN1CCC(O)(c2ccc(Cl)cc2)CC1)c1ccc(F)cc1`, the activity change, negative = inhibition result is “inactive”.
Turning to `O=C(O)c1cc(O)c2c(c1)C(=O)c1cc(O)cc(O)c1C2=O`, the “activity change, negative = inhibition” value is inactive: -11.7%.
In the case of `CCCCCCCCCCCCCCCC[n+]1ccc(C)c2ccccc21`, the Potency is active: 63.1 µM.
For `CC(=O)OCC(=O)[C@@]1(O)CCC2C3CC[C@H]4CC(O)CC[C@@]4(C)C3C(=O)C[C@]21C` (stereo partly drawn), the “activity change, negative = inhibition” value was inactive: 17.1%.
The same measure, in the same setting: with `CC(C)NC(=O)N1CCCC2(CCN(C(=O)c3cc(C(F)(F)F)cc(C(F)(F)F)c3)CC2)C1` the figure was inactive: 4.35%.
On the same count and under the same terms, with `O=C1CCC[C@@H]2C[C@@]3(C[C@@H]4CCN1[C@H]24)Nc1cc(Cl)ccc1NC3=NCc1ccccc1` the figure was inactive: -12.9%; with `C[C@@H]1CCC2[C@](C)(CO)C(O)CC[C@@]2(C)[C@@]12CC[C@](CO)(CCO)O2` (stereo partly drawn), inactive: 17.2%.
The same measure, in the same setting: with `O=C(O)C[C@H](O)C[C@H](O)/C=C/c1c(C2CC2)nc2ccccc2c1-c1ccc(F)cc1` the figure was inactive: 13.5%.
Take `CCNc1ncc2nc(C)c(=O)n(C3CC3)c2n1`: the “activity change, negative = inhibition” value was inactive: 8.44%.
Still for that read-out and setting: for `CC1=C(C(=O)O)N2C(=O)[C@@H](NC(=O)C(N)C3=CCC=CC3)[C@H]2SC1` (stereo partly drawn) the value was inactive: 3.21% [at 75.8 µM].
The same measure, in the same setting: for `O=c1[nH]c2cc(Cl)ccc2c(O)c1-c1cccc(Oc2ccccc2)c1` the value was inactive: 0.192%.
Turning to `Cc1ccc(C)c(OCCCC(C)(C)C(=O)O)c1`, the activity change, negative = inhibition entry is “inactive”.
Take `Cc1cc(/C=C/c2ccccc2)nc2ccccc12`: the “activity change, negative = inhibition” value is inactive: -6.16%.
Still for that read-out and setting: with `C[C@@H]1CCC2[C@@H](C)[C@@H](O)O[C@@H]3O[C@@]4(C)CC[C@@H]1[C@@]23OO4` (stereo partly drawn) the figure was inactive: 18.5%.
On the same count and under the same terms, for `O=C1CCN(Cc2ccccc2)S(=O)(=O)c2c(F)cc(F)cc21` the value was inactive: -2.45%; for `C=CCN1CCc2c(cc(O)c(O)c2Cl)C(c2ccccc2)C1` (stereo not drawn), “inactive”; for `COc1ccccc1-c1ccc2ncnc(N3CCN(C)CC3)c2c1`, inactive: 8.73%.
`COC(=O)c1c(C)c2c(c(C)c1O)OC(=O)c1c(C)c(Cl)c(O)c(Cl)c1O2`: the activity change, negative = inhibition entry is “inactive”.
As to `COc1cc(C(=O)N2CCCCCCC2)cc(OC)c1OC`, the “activity change, negative = inhibition” value was inactive: 5.42%.
Still for that read-out and setting: for `COc1ccccc1CNc1ncnc2ccc(-c3ccccc3C#N)cc12` the value was inactive: -15.3%; for `Cc1cnc(-n2ncc(C(=O)NCc3ccncc3)c2C(C)C)nc1-c1ccc(F)cc1`, inactive: -8.92%; for `O=C(c1csnn1)N1CCC[C@@]2(CCN(Cc3nccs3)C2)C1`, inactive: 15.4%.
With `Cc1ccccc1-c1ccc2ncnc(NCc3cccnc3)c2c1`, the “activity change, negative = inhibition” value was inactive: -13.9%.
As to `Cc1nc(NCc2ccc3nsnc3c2)sc1-c1ccn(C)n1`, the “activity change, negative = inhibition” value was inactive: -4.96%.
Same read-out and setting: with `CC1(C)C(=O)N(CCN2CCC(C(=O)c3ccc(F)cc3)CC2)c2ccccc21` the figure was inactive: 9.05% [at 75.8 µM]; with `CCCCCc1ccc(-c2cn(Cc3ccc4c(c3)C(=O)c3ccccc3C4=O)nn2)cc1`, inactive: 9.51%.
For the molecule `COc1cc(-c2ccc(C)cc2)cc2c1OCCN(C(=O)CCn1ccc(C)n1)C2`, the “activity change, negative = inhibition” value is inactive: 1.23%.
Still for that read-out and setting: with `O=C(OC1C[C@H]2CC[C@@H](C1)[N+]21CCCC1)C(O)(c1ccccc1)c1ccccc1` (stereo partly drawn) the figure was inactive: 2.8%; with `COc1c(O)cc(O)cc1O`, inactive: -7.42%; with `CCN(CC)CC1CCCCN1CC(=O)N1c2ccccc2C(=O)Nc2cccnc21` (stereo not drawn), inactive: 14.6%.
The same measure, in the same setting: for `CC#CCC(C)[C@H](O)/C=C/[C@@H]1[C@H]2C/C(=C/CCCC(=O)O)C[C@H]2C[C@H]1O` (stereo partly drawn) the value was inactive: 3.43%; for `CC(C)CN(C[C@@H](O)[C@H](Cc1ccccc1)NC(=O)O[C@@H]1CCOC1)S(=O)(=O)c1ccc(N)cc1`, inactive: 9.26%; for `Cc1ccc(/C=N/n2c(-c3ccccc3)csc2=S)cc1`, inactive: 12.3%.
On the same count and under the same terms, with `CC(C)(C)[C@H]1CCC(=O)N([C@H](CN=[N+]=[N-])Cc2ccccc2)CC1` the figure was inactive: -14.5%.
In the case of `COc1cc(=O)n2c(c1C(=O)NCc1ccco1)CCN(C(=O)c1cccnc1SC)CC2`, the “activity change, negative = inhibition” value was inactive: 1.19%.
For the molecule `Cc1cnc(CNc2ncnc3ccc(-c4ccc(C(=O)N(C)C)cc4)cc23)cn1`, the “activity change, negative = inhibition” value is inactive: -8.65%.
As for `Cc1c(C(=O)N2CCC(Cc3ccccc3)CC2)sc2ncnc(NCc3ccccn3)c12`, the “activity change, negative = inhibition” value is inactive: -9%.
With `O=C(Nc1ccccc1)OCC(CN1CCCCC1)OC(=O)Nc1ccccc1` (stereo not drawn), the “activity change, negative = inhibition” value was inactive: 8.98% [at 75.8 µM].
